Hit rate of the full screen: of about 420,000 compounds, about 50,000 (12%) were called active. This list was built around the results that the source calls inconclusive (neither active nor inactive); the mix of calls is not that of the screen. Calls follow the shape of the dose curve; as a rule, active = well fitted inhibition curve with a large enough effect; inconclusive = small, poorly fitted or top-dose-only effect; inactive = flat fitted curve, though single readings scatter. No potency is given beside an inconclusive call; the fits are too rough.
Assay: qHTS for Inhibitors of human tyrosyl-DNA phosphodiesterase 1 (TDP1): qHTS in cells in presence of CPT; also: nearly all actives have a fitted effect of over 55% in size
Conditions: chicken DT40 Tdp1-/-;hTDP1 cells + 20 nM CPT, ATP luminescence, 48 h; activity change, negative = growth inhibition: at 46.2 µM (top of the series) unless noted
Outline: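 Cell growth measured by CellTiter-Glo luminescence after a minimum 48 h, 37 C compound exposure with 20 nM CPT in Tdp1-knockout DT40 cells stably expressing hTDP1, seeded 400/well; qHTS titration format.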
% is scaled to controls: 0 for no effect and ±100 for the full control effect; potency is read from the fitted curve at half-maximal effect; tags tell the direction and shape of the fitted curve.

| Compound | Potency | activity change, negative = growth inhibition |
| --- | --- | --- |
| Cc1ccc(F)cc1C(=O)N1CCCC(C)(C(=O)NS(=O)(=O)C2CC2)C1 (stereo not given) | inconclusive [inhibitor, full curve] |  |
| COC(=O)c1ccccc1NC(=O)CN(c1c(C)cccc1C)S(C)(=O)=O | inconclusive [inhibitor, single point] |  |
| COc1cccc(C(=O)Nc2cc(=O)n(C)c(=O)n2C)c1OC | inactive |  |
| COc1ccc(C2CC(c3ccc([N+](=O)[O-])cc3)=NN2C(C)=O)cc1 (stereo not given) | inconclusive [inhibitor, single point] |  |
| Cc1cc(-c2ccc(S(=O)(=O)NCc3ccc(F)cc3)cc2)on1 | inconclusive [inhibitor, partial curve] |  |
| COc1ccc(-c2nc3c(c(SCC(=O)N4CCCC4)n2)COC(C)(C)C3)cc1 | inactive |  |
| O=C(NC1CCCCC1)C(c1ccccn1)N(C(=O)c1csnn1)C1CC1 (stereo not given) | inactive |  |
| COc1cc2c(cc1OC)C(c1cccs1)N(C(=O)C(C)C)CC2 (stereo not given) | inconclusive [inhibitor, single point] |  |
| CCCCNC(=O)c1ccc2c(c1)NC(=O)C(CS(=O)(=O)Cc1cccc(C)c1)N2 (stereo not given) | inactive |  |
| CCCCn1nnc(NC(=S)NC(=O)c2ccc(OCC)c([N+](=O)[O-])c2)n1 | inconclusive [inhibitor, single point] |  |
| Cc1cc(C(=O)NCc2ccccc2Br)no1 | inconclusive [inhibitor, partial curve] |  |
| CCCCNc1ncnc2c1nnn2C | inactive |  |
| Cc1ccc(NC(=O)c2cc(S(=O)(=O)NCCc3ccccc3)ccc2F)cc1Cl | inconclusive [inhibitor, single point] |  |
| Cc1cc(C)nc(-n2nc(C)c(C3(O)C(=O)Nc4ccc(F)cc43)c2N)n1 (stereo not given) | inconclusive [inhibitor, single point] |  |
| CCC(=O)Nc1sc2c(c1C#N)CC(C)(CC)OC2 (stereo not given) | inconclusive [inhibitor, single point] |  |
| CCOC(=O)Cc1csc(NC(=O)Nc2cccc(Cl)c2)n1 | inconclusive [inhibitor, single point] |  |
| Cc1cc(C(=O)OC(C)C(=O)Nc2cccc(S(=O)(=O)N3CCOCC3)c2)c(C)o1 (stereo not given) | inconclusive [inhibitor, single point] |  |
| O=C(c1ccc2c(=O)n(-c3ccccc3)c(=O)[nH]c2c1)N1CCCCC1 | inconclusive [inhibitor, single point] |  |
| COc1ccc(NC(=O)C2CCCNC2)cc1OCC(C)C (stereo not given) | inconclusive [inhibitor, partial curve, poor fit] |  |
| O=C(O)c1cc(N/N=C/c2ccc(-c3ccccc3)cc2)ccc1Cl | inconclusive [inhibitor, single point] |  |
| CC(C)Cn1c(=O)c2sccc2n2c(CCCC(=O)NCCc3ccccc3)nnc12 | inconclusive [inhibitor, single point] |  |
| CCN1C(=O)/C(=C/N(C(C)=O)c2ccccc2)N(c2ccccc2)C1=S | inconclusive [inhibitor, single point] |  |
| COc1ccc(C(=O)CSc2nc(-c3ccccn3)nc(C)c2Cl)cc1 | inconclusive [inhibitor, single point] |  |
| Cc1ccc(Cl)cc1NS(=O)(=O)Cc1ccccc1 | inactive |  |

| Compound | Potency | activity change, negative = growth inhibition |
| --- | --- | --- |
| CSCCC(NC(=O)c1ccccc1Cl)C(=O)NNC(=O)c1ccccc1O (stereo not given) | inconclusive [inhibitor, single point] |  |
| Fc1ccc(C2c3cccn3CCN2C(=S)Nc2cccc(Br)c2)cc1 (stereo not given) | inconclusive [inhibitor, single point] |  |
| COc1cccc(NC(=O)Cn2c(=O)n(-c3ccc(Cl)cc3)c(=O)c3oc4ccccc4c32)c1 | inconclusive [inhibitor, single point] |  |
| O=C1C(=O)N(c2nccs2)C(c2ccccc2F)/C1=C(\O)c1ccc2c(c1)OCCO2 (stereo not given) | inconclusive [inhibitor, single point] |  |
| CCOC(=O)N1CCN(C(=O)CSc2cc(C)nc3c(-c4ccccc4OC)c(C)nn23)CC1 | active: 23.1 µM |  |
| COc1cc(OC)c(OC)cc1/C=N/NC(=O)c1ccc(CSc2nc(C)cc(C)n2)cc1 | inactive |  |
| Cc1nc(Nc2ccc(Cl)cc2)cc(-c2ccccc2)n1 | active: 23.1 µM |  |
| CC(Oc1ccccc1)C(=O)NC1CCCCCCC1 (stereo not given) | inactive |  |
| COc1cc(OC)cc(C(=O)Oc2c(CN3CCOCC3)cc(Cl)c3cccnc23)c1 | inconclusive [inhibitor, single point] |  |
| O=C(CC1NCCNC1=O)OCc1ccccc1 (stereo not given) | inconclusive [inhibitor, single point] |  |
| COc1cccc(NC(=O)C2(C)CCN2C(=O)Cc2cccc3ccccc23)c1 (stereo not given) | inconclusive [inhibitor, single point] |  |
| Cc1ccn2c(Nc3ccc4c(c3)OCO4)c(-c3ccc(N(C)C)cc3)nc2c1 | active: 13 µM |  |
| Cc1cccc(N2C(=O)c3cccc4c(N5CCCCC5)c([N+](=O)[O-])cc(c34)C2=O)c1C | inconclusive [inhibitor, single point] |  |
| O=C(O)c1ccc(COc2ccccc2/C=C2\NC(=O)N(Cc3ccccc3)C2=O)cc1 | inconclusive [inhibitor, single point] |  |
| COc1ccc(/C=C2\SC(=S)N(Cc3cccnc3)C2=O)cc1C | inconclusive [inhibitor, single point] |  |
| COc1ccc(CNC(=O)c2nc(SC(C)C)ncc2Cl)cc1 | active: 29.1 µM |  |
| O=c1c2ccc(Cl)cc2[nH]c(=S)n1CCC1=CCCCC1 | inactive |  |
| CN(C)c1ccc(C(CNS(=O)(=O)c2ccc([N+](=O)[O-])cc2)N2CCOCC2)cc1 (stereo not given) | inactive |  |
| COc1ccccc1CNC(=O)NCc1noc2ccc(C)cc12 | inconclusive [inhibitor, single point] |  |
| O=C(/C=C/c1ccncc1)c1cc(Cl)ccc1O | inactive |  |
| CCn1nc(C)cc1C(=O)Sc1ccc(C)cc1 | inconclusive [inhibitor, single point] |  |
| O=c1c2cn[nH]c2nc(SCc2cccc(Br)c2)n1-c1ccc(Cl)cc1 | inconclusive [inhibitor, partial curve] |  |
| CSCCC(NC(=O)/C(=C\c1ccc(Cl)cc1)NC(=O)c1ccccc1)C(=O)O (stereo not given) | inactive |  |
| COc1cccc(C2CC(=O)NC(SC)=C2C#N)c1 (stereo not given) |  | inconclusive: -4.07% [inhibitor] |

| Compound | Potency | activity change, negative = growth inhibition |
| --- | --- | --- |
| Cc1c(CNCCC2=CCCCC2)c(C(=O)O)c(C)n1Cc1ccccc1 | inconclusive [inhibitor, single point] |  |
| CCOC(=O)C1C(=O)CC(O)(c2ccccc2)CC1c1ccccc1 (stereo not given) | inconclusive [inhibitor, single point] |  |
| Cc1nc2ccc(S(=O)(=O)CCC(=O)Nc3ccc(C)c(C)c3)cc2s1 | inconclusive [inhibitor, partial curve] |  |
| N#CC(CC(=O)OCc1ccccc1)NC(=O)OCc1ccccc1 (stereo not given) | inconclusive [inhibitor, single point] |  |
| Cc1ccn2c(/C=N/OCc3ccc(F)cc3)c(-c3ccc(Cl)cc3)nc2c1 | inconclusive [inhibitor, single point] |  |
| CCOc1cc(/C=C2\COc3ccccc3C2=O)cc(Br)c1OCC(=O)N(C)C | active: 3.66 µM |  |
| O=C(C=Cc1ccccc1)c1ccc([N+](=O)[O-])cc1 | inconclusive [inhibitor, single point] |  |
| CCc1cc(Cn2nc(-c3ccccc3)cc2C(=O)NCc2ccc(C)cc2)on1 | inconclusive [inhibitor, single point] |  |
| CCOc1ccc(CCNC(=O)CCc2c(C)nc3c(-c4ccccc4)c(C)nn3c2C)cc1OCC | inconclusive [inhibitor, single point] |  |
| COc1cc(/C=C2\CCc3c2nc2ccccc2c3C(=O)O)cc(OC)c1OC | inactive |  |
| O=[N+]([O-])c1cc(Cl)cc2c1nc(NCCO)c1ccccc12 | inactive |  |
| Cn1c(=O)cc(OCC(=O)NCc2cccs2)c2ccccc21 | inactive |  |
| COCCN(CC(=O)NCc1ccc2c(c1)OCO2)C(=O)CCC(=O)Nc1nccs1 | inactive |  |
| O=C(c1cccs1)N1CCCN(c2ncnc3scc(-c4ccccc4)c23)CC1 | inconclusive [inhibitor, single point] |  |
| O=C(Cn1cc(S(=O)(=O)N2CCCC2)c(S(=O)(=O)N2CCCC2)c1)Nc1cccc(F)c1 | inactive |  |
| CN1CCN(C(=O)c2cc3c(c(-c4cccc(-c5cccnc5)c4)n2)[C@@H](CCO)N(C(=O)CC2CC2)C3)CC1 | inactive |  |
| COc1cc(OC)c(-c2nn3c(-c4n[nH]c5c4CCC5)nnc3s2)cc1OC | inconclusive [inhibitor, single point] |  |
| C=CCC(CC=C)(CNC(=O)C(=O)Nc1cc(C)ccc1OC)c1ccc(OC)c(OC)c1 | active: 8.2 µM |  |
| CCOc1ccc(C2=NC(c3ccc(OC)cc3)=Nc3ccc(Cl)cc3N2)cc1 | inconclusive [inhibitor, single point] |  |
| COC(=O)CCSCC(=O)Nc1ccc(S(=O)(=O)N2CCOCC2)cc1OC | inactive |  |
| CC(=O)c1ccc(Nc2nc(NCCO)nc(OC(C(F)(F)F)C(F)(F)F)n2)cc1 | inconclusive [inhibitor, single point] |  |
| Cn1c(S(=O)(=O)c2ccc([N+](=O)[O-])cc2)nc(Br)c1Br | active: 20.6 µM |  |
